# Measured values reported in patent US10022453B2, “Antibody drug conjugates (ADCs) with kinesin spindel protein (KSP)” (BAYER PHARMA AKTIENGESELLSCHAFT, priority 2013, dated 2018).
# B1: PDL-192: "agonistic antibodies already described [e.g. PDL-192(TPP-1104)"; "reference antibodies"; anti-TWEAKR antibody with "moderate agonistic activity" (protein, listed as Homo Sapiens)
# light: DIQMTQSPSSLSASVGDRVTITCRASQSVSTSSYSYMHWYQQKPGKAPKLLIKYASNLESGVPSRFSGSGSGTDFTLTISSLQPEDFATYYCQHSWEIPYTFGGGTKVEIKRTVAAPSVFIFPPSDEQLKSGTASVVCLLNNFYPREAKVQWKVDNALQSGNSQESVTEQDSKDSTYSLSSTLTLSKADYEKHKVYACEVTHQGLSSPVTKSFNRGEC
# heavy: QVELVESGGGLVQPGGSLRLSCAASGFTFSSYWMSWVRQAPGKGLEWVAEIRLKSDNYATHYAESVKGRFTISRDDSKNSLYLQMNSLRAEDTAVYYCTGYYADAMDYWGQGTLVTVSS[omitted - human IgG1 constant region]
# B2: P4A8: "reference antibodies [PDL-192(TPP-1104), P4A8(TPP-1324)]"; "P4A8 displays a very low agonistic activity" (protein, listed as Homo Sapiens)
# light: DIVLTQSPASLAVSLGQRATISCRASKSVSTSSYSYMHWYQQKPGQPPKLLIKYASNLESGVPARFSGSGSGTDFSLNIHPMEEDDTAMYFCQHSRELPFTFGGGTKLEIKRTVAAPSVFIFPPSDEQLKSGTASVVCLLNNFYPREAKVQWKVDNALQSGNSQESVTEQDSKDSTYSLSSTLTLSKADYEKHKVYACEVTHQGLSSPVTKSFNRGEC
# heavy: QVQLVQSGAEVKKPGASVKVSCKGSGYTFTDYGMHWVRQAPGQGLEWMGVISTYNGYTNYNQKFKGRVTMTVDKSTSTAYMELRSLRSDDTAVYYCARAYYGNLYYAMDYWGQGTLVTVSS[omitted - human IgG1 constant region]
# Experiments:
# TWEAKR [1] = assay: NF-kappaB reporter gene assay for agonistic activity of anti-TWEAKR antibodies; format: cell-based; conditions: assay not named at b490
# From the text: 11 different Fab phages were identified, and the corresponding antibodies were cloned into a mammalian EgG expression vector which provides the CH2-CH3 domains missing in the soluble FAb. Following identification of preferred antibodies, these were expressed as full-length IgGs. These constructs were expressed, for example, transiently in mammalian cells as described by Tom et al., Chapter 12 in Methods Express: Expression Systems edited by Micheal R. Dyson and Yves Durocher, Scion Publishing Ltd, 2007 (see AK-Example 1). The antibodies were purified by protein-A chromatography and characterized further by their binding affinity to soluble monomeric TWEAKR using ELISA and BIAcore analysis, as described in AK-Example 2. To determine the cell binding characteristics of the anti-TWEAKR antibodies, binding was tested by flow cytometry on a number of cell lines (HT29, HS68, HS578). NFiB reporter gene assays were carried out to examine the agonistic activity of all 11 antibodies identified (human IgG1). […] In the end, 7 variants were selected based on increased affinity compared to the best single substitution variant G102T. The corresponding DNA thereof was cloned into a mammalian IgG expression vector and examined for functional activity in the NF-kappaB reporter gene assay mentioned above. […]
# TWEAKR [2] = assay: NF-kappaB reporter gene assay, agonistic activity; format: cell-based
# Procedure: NF-kappaB reporter gene assays were carried out to assess the agonistic activity of all 11 antibodies identified (human IgG1). HEK293 cells were transiently transfected with an NF-kappaB reporter construct (BioCat, Cat. No. LR-0051-PA) using 293fectin according to the instructions of the manufacturer. Transfected cells were sown in F17 media (serum-free; Invitrogen) at 37 C, 5% CO2 into white polylysine-coated 384-well plates (BD). The next day, the cells were stimulated with various concentrations of purified antibodies for 6 h, and a luciferase assay was then carried out using standard methods.
# Maturation was carried out in a first mutations collection round, followed by recombination of those amino acid modifications which increased affinity and activity most. […] 96 variants of each of the 12 selection pools were expressed as soluble Fabs and examined in an ELISA format. […]
# TWEAKR [3] = conditions: from the literature (Michaelson et al., Culp et al., Pellegrini et al.); cited from earlier work
# [4] = biological target: T1, recombinant human TWEAKR protein (TPP-2305) (Homo sapiens, UniProt Q9NP84); conditions: published data (WO2009/020933, WO2009/140177, literature); cited from earlier work
# T1 construct: purchased Fitzgerald Inc 30R-AT080
molecule,measurement,setting,value
B1,agonistic activity at TWEAKR,TWEAKR [1],moderate agonistic activity
same,Agonistic activity,TWEAKR [2],moderate agonistic activity
same,agonistic activity / activation of TWEAKR,TWEAKR [3],limited
same,Kd,[4],5.5 nM
B2,agonistic activity at TWEAKR,TWEAKR [1],very low agonistic activity
same,Agonistic activity,TWEAKR [2],very low agonistic activity
same,Kd,[4],2.6 nM
